# Experimental data published in the supplement of paper PMC8728848.
# This is one part of the list.
# B1: Epa1 (Candida glabrata) (protein)
# chain: MGSSHHHHHHSSGLVPRGSHMTSSNDISLASKDPTTFPLGCSPDITTPKKGLSMELYSYDFRKKGSYPCWDAAYLDPNYPRTGYKSHRLLAKVDGVTGNINFYYHATKGCTPQLGHLPASYNYPKPLTMTNFTMLLYGYFRPKVTGFHTFTISADDLLFVNFGAGNAFDCCRRDSSADHFGNYQAYAIWGSKTAKDELTVHLDAGVYYPIRLFYNNREYDGALSFTFKTESNENTVSDFSEYFFSLDDTEEGCPGLISYD
# Experiments:
# Assay in all cases: glycan array binding signal (z-score within array); higher = stronger binding
# Conditions in all cases: glycan notation: IUPAC condensed, linker removed
# [1] = biological target: Fuc(a1-2)Gal(b1-4)[Fuc(a1-3)]GlcNAc
# Method in brief: (§1)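 Columns mapping to the same glycan were averaged after glycan names were converted to IUPAC-condensed notation. The data come from 3228 arrays in the Consortium for Functional Glycomics database, limited to those with an available protein sequence. Binding is reported as a within-array Z-score averaged across arrays of one protein sequence and across linkers.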
# [2] = biological target: Fuc(a1-2)Gal(b1-4)[Fuc(a1-3)]GlcNAc(b1-2)Man(a1-3)[Fuc(a1-2)Gal(b1-4)[Fuc(a1-3)]GlcNAc(b1-2)Man(a1-6)]Man(b1-4)GlcNAc(b1-4)[Fuc(a1-6)]GlcNAc
# Method in brief: as §1
# [3] = biological target: Fuc(a1-2)Gal(b1-4)[Fuc(a1-3)]GlcNAc(b1-2)[Fuc(a1-2)Gal(b1-4)[Fuc(a1-3)]GlcNAc(b1-4)]Man(a1-3)[Fuc(a1-2)Gal(b1-4)[Fuc(a1-3)]GlcNAc(b1-2)Man(a1-6)]Man(b1-4)GlcNAc(b1-4)GlcNAc
# Method in brief: as §1
# [4] = biological target: Fuc(a1-2)Gal(b1-4)[Fuc(a1-3)]GlcNAc(b1-3)Gal(b1-4)[Fuc(a1-3)]GlcNAc
# Method in brief: as §1
# [5] = biological target: Fuc(a1-2)Gal(b1-4)[Fuc(a1-3)]GlcNAc(b1-3)Gal(b1-4)[Fuc(a1-3)]GlcNAc(b1-3)Gal(b1-4)[Fuc(a1-3)]GlcNAc
# Method in brief: as §1
# [6] = biological target: Fuc(a1-2)Gal(b1-4)[Fuc(a1-3)]GlcNAc(b1-3)GalNAc
# Method in brief: as §1
# [7] = biological target: Fuc(a1-2)Gal(b1-4)[Fuc(a1-3)]GlcNAc(b1-3)[Neu5Ac(a2-6)Gal(b1-4)GlcNAc(b1-6)]Gal(b1-4)Glc
# Method in brief: as §1
# [8] = biological target: Fuc(a1-2)Gal3S(b1-4)GlcNAc
# Method in brief: as §1
# [9] = biological target: Fuc(a1-2)Gal6S(b1-3)GlcNAc
# Method in brief: as §1
# [10] = biological target: Fuc(a1-2)Gal6S(b1-3)GlcNAc6S
# Method in brief: as §1
# Fuc(a1-2)Gal6S(b1-4)Glc = biological target: Fuc(a1-2)Gal6S(b1-4)Glc
# Method in brief: as §1
# [11] = biological target: Fuc(a1-2)Gal6S(b1-4)Glc6S
# Method in brief: as §1
# Fuc(a1-2)[Gal(a1-3)]Gal = biological target: Fuc(a1-2)[Gal(a1-3)]Gal
# Method in brief: as §1
# [12] = biological target: Fuc(a1-2)[Gal(a1-3)]Gal(b1-3)GalNAc
# Method in brief: as §1
# [13] = biological target: Fuc(a1-2)[Gal(a1-3)]Gal(b1-3)GalNAc(b1-3)Gal(a1-4)Gal(b1-4)Glc
# Method in brief: as §1
# [14] = biological target: Fuc(a1-2)[Gal(a1-3)]Gal(b1-3)GlcNAc
# Method in brief: as §1
# [15] = biological target: Fuc(a1-2)[Gal(a1-3)]Gal(b1-3)GlcNAc(b1-2)Man(a1-3)[Fuc(a1-2)[Gal(a1-3)]Gal(b1-3)GlcNAc(b1-2)Man(a1-6)]Man(b1-4)GlcNAc(b1-4)GlcNAc
# Method in brief: as §1
# [16] = biological target: Fuc(a1-2)[Gal(a1-3)]Gal(b1-3)GlcNAc(b1-2)Man(a1-3)[Fuc(a1-2)[Gal(a1-3)]Gal(b1-3)GlcNAc(b1-2)Man(a1-6)]Man(b1-4)GlcNAc(b1-4)[Fuc(a1-6)]GlcNAc
# Method in brief: as §1
# [17] = biological target: Fuc(a1-2)[Gal(a1-3)]Gal(b1-3)GlcNAc(b1-3)GalNAc
# Method in brief: as §1
# [18] = biological target: Fuc(a1-2)[Gal(a1-3)]Gal(b1-3)GlcNAc(b1-6)GalNAc
# Method in brief: as §1
# [19] = biological target: Fuc(a1-2)[Gal(a1-3)]Gal(b1-4)Glc
# Method in brief: as §1
# [20] = biological target: Fuc(a1-2)[Gal(a1-3)]Gal(b1-4)GlcNAc
# Method in brief: as §1
# [21] = biological target: Fuc(a1-2)[Gal(a1-3)]Gal(b1-4)GlcNAc(b1-2)Man
# Method in brief: as §1
# [22] = biological target: Fuc(a1-2)[Gal(a1-3)]Gal(b1-4)GlcNAc(b1-2)Man(a1-3)[Fuc(a1-2)[Gal(a1-3)]Gal(b1-4)GlcNAc(b1-2)Man(a1-6)]Man(b1-4)GlcNAc(b1-4)GlcNAc
# Method in brief: as §1
# [23] = biological target: Fuc(a1-2)[Gal(a1-3)]Gal(b1-4)GlcNAc(b1-2)Man(a1-3)[Fuc(a1-2)[Gal(a1-3)]Gal(b1-4)GlcNAc(b1-2)Man(a1-6)]Man(b1-4)GlcNAc(b1-4)[Fuc(a1-6)]GlcNAc
# Method in brief: as §1
# [24] = biological target: Fuc(a1-2)[Gal(a1-3)]Gal(b1-4)GlcNAc(b1-3)GalNAc
# Method in brief: as §1
# [25] = biological target: Fuc(a1-2)[Gal(a1-3)]Gal(b1-4)GlcNAc(b1-3)[Fuc(a1-2)[Gal(a1-3)]Gal(b1-4)GlcNAc(b1-6)]GalNAc
# Method in brief: as §1
# [26] = biological target: Fuc(a1-2)[Gal(a1-3)]Gal(b1-4)GlcNAc(b1-6)GalNAc
# Method in brief: as §1
# [27] = biological target: Fuc(a1-2)[Gal(a1-3)]Gal(b1-4)[Fuc(a1-3)]Glc
# Method in brief: as §1
# [28] = biological target: Fuc(a1-2)[Gal(a1-3)]Gal(b1-4)[Fuc(a1-3)]GlcNAc
# Method in brief: as §1
# [29] = biological target: Fuc(a1-2)[Gal(a1-3)]Gal(b1-4)[Fuc(a1-3)]GlcNAc(b1-3)GalNAc
# Method in brief: as §1
# [30] = biological target: Fuc(a1-2)[Gal(a1-4)]Gal(b1-4)GlcNAc
# Method in brief: as §1
# [31] = biological target: Fuc(a1-2)[GalNAc(a1-3)]Gal
# Method in brief: as §1
# [32] = biological target: Fuc(a1-2)[GalNAc(a1-3)]Gal(b1-3)GalNAc(a1-3)[Fuc(a1-2)]Gal(b1-4)GlcNAc
# Method in brief: as §1
# [33] = biological target: Fuc(a1-2)[GalNAc(a1-3)]Gal(b1-3)GalNAc(b1-3)Gal(a1-4)Gal(b1-4)Glc
# Method in brief: as §1
# [34] = biological target: Fuc(a1-2)[GalNAc(a1-3)]Gal(b1-3)GlcNAc
# Method in brief: as §1
# [35] = biological target: Fuc(a1-2)[GalNAc(a1-3)]Gal(b1-3)GlcNAc(b1-2)Man(a1-3)[Fuc(a1-2)[GalNAc(a1-3)]Gal(b1-3)GlcNAc(b1-2)Man(a1-6)]Man(b1-4)GlcNAc(b1-4)GlcNAc
# Method in brief: as §1
# [36] = biological target: Fuc(a1-2)[GalNAc(a1-3)]Gal(b1-3)GlcNAc(b1-2)Man(a1-3)[Fuc(a1-2)[GalNAc(a1-3)]Gal(b1-3)GlcNAc(b1-2)Man(a1-6)]Man(b1-4)GlcNAc(b1-4)[Fuc(a1-6)]GlcNAc
# Method in brief: as §1
binder,measurement,setting,value
B1,glycan array binding signal (z-score),[1],-0.386
same,glycan array binding signal (z-score),[2],-0.222
same,glycan array binding signal (z-score),[3],-0.108
same,glycan array binding signal (z-score),[4],-0.299
same,glycan array binding signal (z-score),[5],-0.314
same,glycan array binding signal (z-score),[6],-0.174
same,glycan array binding signal (z-score),[7],-0.168
same,glycan array binding signal (z-score),[8],-0.205
same,glycan array binding signal (z-score),[9],-0.323
same,glycan array binding signal (z-score),[10],-0.286
same,glycan array binding signal (z-score),Fuc(a1-2)Gal6S(b1-4)Glc,-0.291
same,glycan array binding signal (z-score),[11],-0.289
same,glycan array binding signal (z-score),Fuc(a1-2)[Gal(a1-3)]Gal,-0.213
same,glycan array binding signal (z-score),[12],-0.268
same,glycan array binding signal (z-score),[13],-0.306
same,glycan array binding signal (z-score),[14],-0.295
same,glycan array binding signal (z-score),[15],-0.325
same,glycan array binding signal (z-score),[16],-0.305
same,glycan array binding signal (z-score),[17],-0.308
same,glycan array binding signal (z-score),[18],-0.338
same,glycan array binding signal (z-score),[19],-0.282
same,glycan array binding signal (z-score),[20],-0.081
same,glycan array binding signal (z-score),[21],-0.241
same,glycan array binding signal (z-score),[22],-0.31
same,glycan array binding signal (z-score),[23],-0.32
same,glycan array binding signal (z-score),[24],-0.289
same,glycan array binding signal (z-score),[25],-0.235
same,glycan array binding signal (z-score),[26],-0.276
same,glycan array binding signal (z-score),[27],-0.313
same,glycan array binding signal (z-score),[28],-0.252
same,glycan array binding signal (z-score),[29],-0.248
same,glycan array binding signal (z-score),[30],-0.091
same,glycan array binding signal (z-score),[31],-0.303
same,glycan array binding signal (z-score),[32],-0.289
same,glycan array binding signal (z-score),[33],-0.306
same,glycan array binding signal (z-score),[34],-0.284
same,glycan array binding signal (z-score),[35],-0.273
same,glycan array binding signal (z-score),[36],-0.272
